Values joined by “and” are separate entries in the source; they are usually repeats but may differ in a detail not shown here. Identical values can stand only once. Hit rate of the full screen: of about 420,000 compounds, about 64,000 (15%) were called active. The shares of active, inactive and inconclusive entries below differ from those in the screen. The call rests on the fitted dose curve; in most records, active means well fitted inhibition curve with a large enough effect; inconclusive means small, poorly fitted or top-dose-only effect; inactive means flat fitted curve, though single readings scatter. Where the call is inconclusive, the potency comes from a doubtful curve fit.
Experiment: qHTS for Inhibitors of human tyrosyl-DNA phosphodiesterase 1 (TDP1): qHTS in cells in absence of CPT; further: nearly all actives have a fitted effect of over 55% in size
Conditions: DT40 Tdp1-/- hTDP1 cells, no CPT, ATP luminescence, 48 h; activity change, negative = growth inhibition: at 46.2 µM (top of the series) unless noted
Method in brief: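 Luminescent ATP content (CellTiter-Glo) served as the growth readout. Knockout chicken DT40 cells expressing human TDP1 were exposed to compounds without camptothecin for a minimum 48 hr at 37 °C.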
In the case of `CCCOc1cc(C)c(S(=O)(=O)NCc2cccs2)cc1C`, the Potency is reported as inconclusive: 20.6 µM [inhibitor, single point]. For `CCOC(=O)Cn1c(=O)oc2cc(S(=O)(=O)Nc3ccc(N(CC)CC)cc3C)ccc21`, the Potency was “inactive”. With `COC(=O)C1CCN(C(=O)CN(C)Cc2ccc(C(C)(C)C)cc2)CC1` the Potency was inconclusive: 29.1 µM [inhibitor, single point]. For `O=C(N1CCC(n2nc(-c3ccccc3)oc2=O)CC1)C1(c2ccc(Cl)cc2)CC1`, the Potency was inconclusive: 29.1 µM [inhibitor, single point]. In the case of `CCCCN(CCCC)CCNC(=O)CSCc1ccc(C)cc1`, the Potency is reported as active: 20.6 µM. With `CCCn1c(C)cc(C(=O)COC(=O)c2c(C)nn(-c3ccccc3)c2C)c1C` the Potency was inconclusive: 20.6 µM [inhibitor, partial curve]. With `COc1ccc(NC(=O)c2cc(-c3cc(Cl)ccc3C)n[nH]2)cc1OC` the Potency was inconclusive: 20.6 µM [inhibitor, single point]. In the case of `Cc1ccc(C)c(N2CCN(Cc3nnc(-c4ccccc4)o3)CC2)c1`, the Potency is reported as “inactive”. With `CCCCc1nc2cc(C(=O)N3CCCC(COC)C3)ccc2o1` (centres undefined) the Potency was inconclusive: 29.1 µM [inhibitor, single point]. In the case of `CCOC(=O)[C@H]1[C@H]2COc3ccc(Br)cc3[C@@H]2N2C(=O)c3ccc(F)cc3NC(=O)[C@@]12C`, the Potency is reported as inconclusive: 18.4 µM [inhibitor, partial curve]. With `Cc1ccc(NC(=O)c2ccccc2N2C(=O)C3C4C=CC(C5CC45)C3C2=O)cc1C` (centres undefined) the Potency was inconclusive: 29.1 µM [inhibitor, single point]. In the case of `COc1cc(-c2nnc(SCCOc3ccc(C)c(Cl)c3)o2)cc(OC)c1OC`, the Potency is reported as inconclusive: 14.6 µM [inhibitor, partial curve]. In the case of `Cc1ccc(CNC(=O)CCn2cc(-c3ccc(F)cc3)nc2-c2ccncc2)cc1`, the Potency is reported as inconclusive: 18.4 µM [inhibitor, single point]. In the case of `COc1ccc(S(=O)(=O)N2CCCC(C(=O)N3CCCC3)C2)cc1OC` (centres undefined), the Potency is reported as “inactive”. With `CCN(CCCNC(=O)Cn1cc2c(n1)CCCC2)c1cccc(C)c1` the Potency was inconclusive: 11.6 µM [inhibitor, partial curve]. With `Cc1ccc(NS(=O)(=O)c2ccc3[nH]c(=O)[nH]c3c2)c(C)c1` the Potency was inconclusive: 32.6 µM [inhibitor, single point]. For `CCOCCCn1c(SCC(=O)Nc2ccc(OC)cc2OC)nc2ccccc2c1=O`, the Potency was inconclusive: 14.6 µM [inhibitor, partial curve]. For `CCCCOC(=O)C1=C(C)NC(=O)NC1c1ccc(N(C)C)cc1` (centres undefined), the Potency was inconclusive: 29.1 µM [inhibitor, single point]. With `CCCc1nn2c(=O)cc(CSCC(=O)Nc3nnc(CC)s3)nc2s1` the Potency was “inactive”. With `CCC(C)NC(=O)Nc1ccc2c(c1)N(C)C(=O)c1ccccc1S2` (centres undefined) the Potency was “inactive”. In the case of `CN1OC[C@@H]2CN(C(=O)CCc3ccccc3)[C@H](c3cccc(-c4ccccc4)c3)C[C@@H]21`, the Potency is reported as inconclusive: 32.6 µM [inhibitor, single point]. In the case of `COC(=O)Cn1c(CCS(=O)(=O)c2ccc(Cl)cc2)nc2ccccc21`, the Potency is reported as inconclusive: 29.1 µM [inhibitor, single point]. For `CCC(CC)C(=O)c1c[nH]c(C(=O)NCc2ccco2)c1`, the Potency was inconclusive: 20.6 µM [inhibitor, single point]. For `COc1cccc(-c2cc(C(=O)NCC3CCCO3)c3cc(C)cc(C)c3n2)c1` (centres undefined), the Potency was active: 25.9 µM. In the case of `CN1CCN(c2ccccc2NS(=O)(=O)c2ccc3c(c2)CCN3C(=O)C2CCC2)CC1`, the Potency is reported as inconclusive: 20.6 µM [inhibitor, single point]. With `COc1ccccc1CN1CC2(CCN(S(C)(=O)=O)CC2)C1` the Potency was “inactive”. With `C=CCn1c(SCc2nc3ccccc3c(=O)[nH]2)nc2ccccc2c1=O` the Potency was inconclusive: 10.3 µM [inhibitor, partial curve, poor fit]. For `Cn1ccnc1-c1nc2ccccc2[nH]c1=O`, the Potency was “inactive”. With `COc1ccc(C2/C=C\CN(C(=O)Nc3ccccc3)CC(=O)N2Cc2ccc(F)cc2)cc1` (centres undefined) the Potency was inconclusive: 16.4 µM [inhibitor, single point]. For `c1ccc(-c2nn3nnnc3c3ccccc23)cc1`, the activity change, negative = growth inhibition was inconclusive: -37.1% [inhibitor]. With `O=C(CN1CCN(S(=O)(=O)c2ccc(F)cc2)CC1)Nc1ccnn1C1CCCC1` the Potency was inconclusive: 13 µM [inhibitor, partial curve]. In the case of `CC(C)N(Cc1nccn1C)C(=O)c1cc(COc2cccc(C(F)(F)F)c2)on1`, the Potency is reported as active: 13 µM. With `S=C(NCc1ccncc1)Nc1ccc(Br)cc1Cl` the Potency was inconclusive: 7.31 µM [inhibitor, partial curve]. In the case of `CCC(C(=O)NCCc1ccc(C)cc1)n1nc(C)c2c(C)n(-c3ccccc3)nc2c1=O` (centres undefined), the Potency is reported as “inactive”. For `Cc1ccc2c(c1)C1CN(C)CCC1N2C(=O)c1ccccc1NS(=O)(=O)c1ccc(F)cc1C` (centres undefined), the Potency was “inactive”. For `COCc1cc(CN2CCN(CCc3ccccc3)C(CCO)C2)ccc1OC` (centres undefined), the Potency was inconclusive: 18.4 µM [inhibitor, single point]. For `CCNC(=O)c1cc2c(c(-c3cccc(-c4cncnc4)c3)n1)[C@H](CCO)N(C(C)=O)C2`, the Potency was inconclusive: 25.9 µM [inhibitor, single point]. In the case of `Cc1cc(N2C(=O)C(O)=C(C(=O)c3cc4ccccc4o3)C2c2ccc(OC(C)C)cc2)no1` (centres undefined), the Potency is reported as active: 16.4 µM. With `Cc1cccc(-n2c(O)c(C=Nc3ccc(O)cc3)c3ccccc3c2=O)n1` the Potency was inconclusive: 32.6 µM [inhibitor, single point]. With `COc1ccccc1C1CCN(Cc2ccc(Cl)cc2Cl)CC1` the Potency was “inactive”. For `Cc1cc(C(=O)OCC(=O)N2CCN(c3ccccc3)CC2)c2ccccc2n1`, the Potency was inconclusive: 18.4 µM [inhibitor, single point]. For `COc1ccccc1CN1CC[C@@]2(CCCN(C(C)=O)C2)C1`, the Potency was “inactive”. In the case of `N#Cc1cccc(NC(=O)Cn2cnc(S(=O)(=O)N3CCOCC3)c2)c1`, the Potency is reported as inconclusive: 18.4 µM [inhibitor, single point]. With `CCOC(=O)C1(Cc2ccc(Cl)cc2)CCN(C(=O)c2sc(C)nc2C)CC1` the Potency was active: 9.2 µM. For `Cc1cccc(C)c1NC(=O)Cn1nc(C)c2sc3ccccc3c2c1=O`, the Potency was inconclusive: 9.2 µM [inhibitor, partial curve]. In the case of `CCS(=O)(=O)c1nc(S(=O)(=O)c2ccc(C)cc2)c(N2CCC(C)CC2)s1`, the Potency is reported as inconclusive: 5.8 µM [inhibitor, single point]. With `O=C(NC(=S)N(Cc1ccccc1)c1ccccn1)C1CC1` the Potency was “inactive”. For `O=C(c1ccc(=O)oc1)N1CCOCC1`, the Potency was “inactive”. For `COc1cc(OC)cc(-c2nc3nc(C)c(CCC(=O)Nc4cc(F)ccc4F)c(C)n3n2)c1`, the Potency was active: 8.2 µM. In the case of `c1ccc(COCCN2CCN(CCOCc3ccccc3)CC2)cc1`, the Potency is reported as inconclusive: 29.1 µM [inhibitor, single point]. For `CCc1noc(C)c1C(=O)Nc1cc(Cl)ccc1N1CCCC1`, the Potency was active: 18.4 µM. In the case of `Cc1cccc(/C(N)=N/OC(=O)Cc2cccs2)c1`, the activity change, negative = growth inhibition is reported as inconclusive: -35.3% [inhibitor]. With `Cc1cccc(C)c1NC(=O)CN(C)C(=O)C1CCN(c2ncnc3sc(C)c(C)c23)CC1` the Potency was inconclusive: 18.4 µM [inhibitor, single point]. With `Cc1cccc(NC(=O)c2cc(S(=O)(=O)N3CCC4(CC3)OCCO4)ccc2F)c1` the Potency was “inactive and inconclusive: 23.1 µM [inhibitor, single point]”. For `CN(Cc1ccc(C(C)(C)C)cc1)C(=O)C1CCN(C(=O)Nc2ccccc2)CC1`, the Potency was active: 23.1 µM. With `O=C(O)CSc1c(-c2cccs2)[nH]c2ccccc12` the Potency was inconclusive: 25.9 µM [inhibitor, single point]. With `CCCCCCn1c(SCC#N)nc2ccccc2c1=O` the Potency was inconclusive: 35.5 µM [inhibitor, single point]. For `Cc1ccc(S(=O)(=O)N2C(=O)CCC2C(N)=O)cc1` (centres undefined), the Potency was inconclusive: 6.51 µM [inhibitor, partial curve]. In the case of `CCOC(=O)[C@@H]1[C@H]2COc3ccccc3[C@@H]2N2C(=O)N(c3ccc(C)cc3)C(=O)[C@@]12C`, the Potency is reported as “inactive”. With `COc1ccc(NC(=O)c2cccc3c(-c4cccnc4)coc23)cc1` the Potency was active: 20.6 µM. In the case of `O=C(OCC(=O)N1CCCc2ccccc21)c1c(F)cccc1F`, the Potency is reported as “inactive”. With `COc1cccc(C(NC(C)=O)c2nc(/C=C/c3ccccc3)cs2)c1` (centres undefined) the Potency was inconclusive: 29.1 µM [inhibitor, single point]. With `CN(Cc1nc(Cc2ccccc2F)no1)Cc1cccc2ncccc12` the Potency was active: 16.4 µM. For `O=C(c1ccc(S(=O)(=O)Nc2ccccc2F)cc1)N1CCN(c2ccccn2)CC1`, the Potency was inconclusive: 9.2 µM [inhibitor, partial curve]. With `CC(C)n1c(O)c(N=Nc2ccc(Cl)nn2)c2ccccc21` the Potency was inconclusive: 20.6 µM [inhibitor, single point]. With `Cc1ccc(NC(=O)CN2C(=O)NC3(CCCc4ccccc43)C2=O)c(Cl)c1` (centres undefined) the activity change, negative = growth inhibition was inconclusive: -30.4% [inhibitor]. For `COc1cc(C(=O)NC(=S)Nc2ccccc2N2CCOCC2)cc(OC)c1OC`, the Potency was active: 11.6 µM. In the case of `CN(CCNC(=O)c1c[nH]c2c1ccc1ccccc12)CCNC(=O)c1c[nH]c2c1ccc1ccccc12`, the Potency is reported as inconclusive: 29.1 µM [inhibitor, partial curve, poor fit]. For `Cc1nc2cc(-c3ccccc3)nn2c(C)c1CCC(=O)N1CCN(c2ccccc2)CC1`, the Potency was inconclusive: 13 µM [inhibitor, single point].

Source: PubChem BioAssay AID686978 (National Center for Advancing Translational Sciences (NCATS), 2013)
On the % scale 0 is the no-effect control and ±100 the full control effect; potency means the concentration at half of the fitted maximal effect; tags describe the fitted curve by direction and shape.
